Experimental data: article PMC4336329 (PLoS ONE, 2015)
Hit rate of the full screen: of about 310,000 compounds, about 14,000 (4.5%) showed an effect of 50% or more. Effects have a minus sign here. Some of the results follow.

biological target: human ether-à-go-go-related gene (hERG) potassium channel (human, UniProt Q12809); test: primary screen, population patch clamp on CHO cells stably expressing hERG
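Also: peak tail current of the secondary pulse compared with the same well before compound.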

Chain of human ether-à-go-go-related gene (hERG) potassium channel (Q12809 whole entry, looked up): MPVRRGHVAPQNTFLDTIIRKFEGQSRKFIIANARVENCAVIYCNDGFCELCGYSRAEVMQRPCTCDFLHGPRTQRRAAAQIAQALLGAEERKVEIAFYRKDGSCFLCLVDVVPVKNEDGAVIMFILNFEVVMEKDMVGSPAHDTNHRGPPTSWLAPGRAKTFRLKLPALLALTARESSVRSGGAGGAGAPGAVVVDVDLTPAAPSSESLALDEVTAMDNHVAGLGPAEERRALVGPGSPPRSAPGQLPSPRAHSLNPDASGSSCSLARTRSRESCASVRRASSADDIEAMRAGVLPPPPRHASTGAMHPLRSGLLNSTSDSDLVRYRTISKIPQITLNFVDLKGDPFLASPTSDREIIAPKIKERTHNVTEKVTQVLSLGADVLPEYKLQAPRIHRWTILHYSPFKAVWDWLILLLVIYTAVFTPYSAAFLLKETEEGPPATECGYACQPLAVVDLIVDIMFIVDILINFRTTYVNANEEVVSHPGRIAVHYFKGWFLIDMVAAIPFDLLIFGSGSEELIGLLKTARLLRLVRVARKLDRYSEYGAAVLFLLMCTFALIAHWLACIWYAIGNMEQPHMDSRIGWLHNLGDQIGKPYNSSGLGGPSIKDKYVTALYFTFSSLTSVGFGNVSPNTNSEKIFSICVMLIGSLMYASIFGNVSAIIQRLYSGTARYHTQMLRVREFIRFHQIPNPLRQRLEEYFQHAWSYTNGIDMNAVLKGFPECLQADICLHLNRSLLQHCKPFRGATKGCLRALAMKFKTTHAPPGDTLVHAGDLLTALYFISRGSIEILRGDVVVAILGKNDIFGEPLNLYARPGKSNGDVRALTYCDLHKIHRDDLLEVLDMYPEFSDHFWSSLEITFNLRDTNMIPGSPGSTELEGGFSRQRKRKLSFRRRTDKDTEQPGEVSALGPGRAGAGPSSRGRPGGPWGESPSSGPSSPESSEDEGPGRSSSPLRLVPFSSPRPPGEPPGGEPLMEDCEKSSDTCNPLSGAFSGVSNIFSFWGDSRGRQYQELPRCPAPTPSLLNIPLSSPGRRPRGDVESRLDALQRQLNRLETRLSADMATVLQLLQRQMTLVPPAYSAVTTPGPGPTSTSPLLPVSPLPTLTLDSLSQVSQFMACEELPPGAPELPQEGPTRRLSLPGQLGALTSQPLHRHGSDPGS

`O=C(NCCc1c[nH]c2ccccc12)c1ccccc1` was tested. Which “hERG current change (%, negative = inhibition) at 10uM” value did it give?
Its value is 4.79%.

With `CC(=O)SC1CC(=O)N(c2ccc(C(C)(C)C)cc2)C1=O` (centres unmarked) as the compound, how does the “hERG current change (%, negative = inhibition) at 10uM” value read?
The value was 9.99%.

With `O=C(NCc1cccnc1)C(=O)c1c[nH]c2ccccc12` as the compound, how does the “hERG current change (%, negative = inhibition) at 10uM” value read?
Its value is 2.44%.

`Nc1nc2nc(-c3ccccc3)cc(=O)n2[nH]1` was tested. Which “hERG current change (%, negative = inhibition) at 10uM” value did it give?
Its value is 14.4%.

`CCOC(=O)c1oc2c(CN3CCN(CCO)CC3)c(O)c(CC)cc2c(=O)c1-c1nc2ccccc2s1` was tested. Which “hERG current change (%, negative = inhibition) at 10uM” value did it give?
The value was 14.6%.

With `C/C(=N/NC(=O)C1CCCC1)c1ccc(NC(=O)C(F)(F)F)cc1` as the compound, how does the “hERG current change (%, negative = inhibition) at 10uM” value read?
The value was 23.5%.

`COc1ccc(NC(=O)[C@@H]2CCCN2S(=O)(=O)c2cccc3cccnc23)cc1` was tested. Which “hERG current change (%, negative = inhibition) at 10uM” value did it give?
The value was -8.16%.

With `CSc1ncc(Cl)c(C(=O)NCc2cccnc2)n1` as the compound, how does the “hERG current change (%, negative = inhibition) at 10uM” value read?
The value was 9.98%.

`CC1=C(C(=O)OCc2ccccc2)C(c2cccs2)N2C(=O)CCSC2=N1` (centres unmarked) was tested. Which “hERG current change (%, negative = inhibition) at 10uM” value did it give?
The value was 17.7%.

Which “hERG current change (%, negative = inhibition) at 10uM” value does the source give for `Cc1cc(/C=C2\SC(=O)N(C)C2=O)c(C)n1-c1ccc(O)cc1` here?
The value was 3.54%.

How did the “hERG current change (%, negative = inhibition) at 10uM” value turn out when `O=C(CCCn1ncn2c(cc3occc32)c1=O)NCc1cccc(Cl)c1` was run?
The value was -61.3%.

With `COc1ccc(NC(=O)C(F)(OC)C(F)(F)F)c(OC)c1` (centres unmarked) as the compound, how does the “hERG current change (%, negative = inhibition) at 10uM” value read?
Its value is -14.8%.

Which “hERG current change (%, negative = inhibition) at 10uM” value does the source give for `O=C(C[n+]1cccc(Br)c1)c1ccc(-c2ccccc2)cc1.[Br-]` here?
The value was -45.1%.

`CCn1c(SCC(=O)Nc2cccnc2Cl)nnc1-c1ccccc1` was tested. Which “hERG current change (%, negative = inhibition) at 10uM” value did it give?
The value was -16.2%.

How did the “hERG current change (%, negative = inhibition) at 10uM” value turn out when `CCOc1ccc(N(CC(=O)NCCc2ccccc2)S(=O)(=O)c2ccccc2)cc1` was run?
Its value is 20.5%.

With `CC(Sc1nc2ccccc2[nH]1)C(=O)NC1CCCCC1C` (centres unmarked) as the compound, how does the “hERG current change (%, negative = inhibition) at 10uM” value read?
Its value is 14.4%.

For `Cc1ccc2cccc(OCc3nnc(SCC(=O)O)n3C)c2n1`, which “hERG current change (%, negative = inhibition) at 10uM” value is on record?
The value was 16.9%.

Which “hERG current change (%, negative = inhibition) at 10uM” value does the source give for `S=c1[nH]nc(CCc2nc3ccccc3[nH]2)n1-c1ccccc1` here?
Its value is 13%.

`O=C(Nc1cccnc1Cl)c1cc(-c2ccc(Br)cc2)on1` was tested. Which “hERG current change (%, negative = inhibition) at 10uM” value did it give?
Its value is 36.8%.

For `Cc1cc2ccccc2c(=O)n1CC(=O)N(C)c1ccc(F)cc1`, which “hERG current change (%, negative = inhibition) at 10uM” value is on record?
The value was -2.62%.

For `O=C(Nc1ccccc1)Nc1nc(-c2ccc(F)cc2)cs1`, which “hERG current change (%, negative = inhibition) at 10uM” value is on record?
Its value is 14.6%.

Which “hERG current change (%, negative = inhibition) at 10uM” value does the source give for `CC(C)(C)OC(=O)N1CCC(CC2CC(c3cccc(Br)c3)=NO2)(C(=O)NCC2CCCCC2)CC1` (centres unmarked) here?
Its value is 13.7%.

With `COc1ccc(OC)c(NC(=O)CSc2n[nH]c(-c3cccnc3)n2)c1` as the compound, how does the “hERG current change (%, negative = inhibition) at 10uM” value read?
The value was -9.92%.

Which “hERG current change (%, negative = inhibition) at 10uM” value does the source give for `C/C(Cn1nnc([N+](=O)[O-])n1)=N\NC(=O)c1ccc(Cl)c(Cl)c1` here?
The value was -33.3%.

Which “hERG current change (%, negative = inhibition) at 10uM” value does the source give for `Cc1cccc(-n2ccnc2SCC(=O)Nc2ccc3c(c2)OCCO3)c1` here?
Its value is -14%.

Which “hERG current change (%, negative = inhibition) at 10uM” value does the source give for `CC1CCCN(c2sc(S(C)(=O)=O)nc2S(=O)(=O)c2ccc(Cl)cc2)C1` (centres unmarked) here?
The value was 16.7%.

For `CCCCCn1c(=NC(=O)c2cccnc2)c(C#N)cc2c(=O)n3cccc(C)c3nc21`, which “hERG current change (%, negative = inhibition) at 10uM” value is on record?
Its value is -54.8%.

With `Cc1ccc(Cl)cc1N1CCN(C(=O)c2cc3c(=O)[nH]c4ccccc4c3n2C)CC1` as the compound, how does the “hERG current change (%, negative = inhibition) at 10uM” value read?
The value was 8.91%.

With `Cc1nc2ccccn2c1-c1ccnn1S(=O)(=O)c1ccc(F)cc1` as the compound, how does the “hERG current change (%, negative = inhibition) at 10uM” value read?
The value was -36.4%.

For `Cc1ccc(S(=O)(=O)Nc2nonc2C)cc1`, which “hERG current change (%, negative = inhibition) at 10uM” value is on record?
The value was 6.42%.

With `CN(C(=O)CC(NC(=O)c1ccccc1)(c1ccccc1)c1ccccc1)c1ccccc1` as the compound, how does the “hERG current change (%, negative = inhibition) at 10uM” value read?
The value was -8.47%.

Which “hERG current change (%, negative = inhibition) at 10uM” value does the source give for `Cc1cc(Br)ccc1NC(=O)CN(C)C(=O)C1CSC2(C)CCC(=O)N12` (centres unmarked) here?
Its value is 11.5%.

With `CC(=O)Nc1ccc(NC(=O)CCCc2ccccc2)cc1` as the compound, how does the “hERG current change (%, negative = inhibition) at 10uM” value read?
Its value is -0.104%.

`COc1cccc2cc(C(=O)NC3CC(C)(C)NC(C)(C)C3)c(=O)oc12` was tested. Which “hERG current change (%, negative = inhibition) at 10uM” value did it give?
Its value is 5.96%.

Which “hERG current change (%, negative = inhibition) at 10uM” value does the source give for `C=C(C)CNC(=S)N/N=C/c1ccco1` here?
Its value is 9.04%.

With `CCCN(CC(=O)Nc1ccccc1C)C(=O)c1ccc(COc2ccccc2)cc1` as the compound, how does the “hERG current change (%, negative = inhibition) at 10uM” value read?
The value was 1.84%.

`COC(=O)c1ccc(OC(=O)c2cccnc2SC)cc1` was tested. Which “hERG current change (%, negative = inhibition) at 10uM” value did it give?
The value was 28.4%.

`CC(=O)Nc1ccc(NS(=O)(=O)C(F)(F)F)cc1` was tested. Which “hERG current change (%, negative = inhibition) at 10uM” value did it give?
The value was 31.2%.

Which “hERG current change (%, negative = inhibition) at 10uM” value does the source give for `COc1ccccc1N1CCN(CC(=O)c2ccc3ccn(C(C)=O)c3c2)CC1` here?
Its value is -4.21%.

For `CCOC(=O)c1c(C)[nH]c(C(=O)OCC(=O)Nc2cc(Cl)ccc2OC)c1C`, which “hERG current change (%, negative = inhibition) at 10uM” value is on record?
The value was -30.3%.

`CCOc1ccc(NC(=O)c2cccc(OC(=S)N3CCOCC3)c2)cc1` was tested. Which “hERG current change (%, negative = inhibition) at 10uM” value did it give?
Its value is 0.648%.

`O=C(O)c1ccccc1C(=O)Nc1ccc(-n2ccc(C(F)(F)F)n2)cc1` was tested. Which “hERG current change (%, negative = inhibition) at 10uM” value did it give?
The value was 17.4%.

`Cc1ccc(NC(=S)NC(=O)c2c(-c3ccccc3Cl)noc2C)cc1` was tested. Which “hERG current change (%, negative = inhibition) at 10uM” value did it give?
The value was -5.95%.

Which “hERG current change (%, negative = inhibition) at 10uM” value does the source give for `C=CCOc1ccc(C2C3=C(CCCC3=O)N(CC(=O)O)C3=C2C(=O)CCC3)cc1OCC` here?
The value was 3.63%.

With `CN(CCc1cnn(C)c1)C(=O)C1CCC(=O)N(CC2CCCCC2)C1` (centres unmarked) as the compound, how does the “hERG current change (%, negative = inhibition) at 10uM” value read?
The value was 19.4%.

Which “hERG current change (%, negative = inhibition) at 10uM” value does the source give for `COC(=O)[C@H]1C[C@H]1[C@@H](NC(=O)c1cccnc1)c1ccccc1` here?
The value was 5.42%.

`COc1cc(/C=N/NC(=O)C(=O)NCC2CCCO2)ccc1O` (centres unmarked) was tested. Which “hERG current change (%, negative = inhibition) at 10uM” value did it give?
Its value is 16.4%.

How did the “hERG current change (%, negative = inhibition) at 10uM” value turn out when `O=C(CN(C(=O)Cn1nnc(-c2ccccc2F)n1)c1cnc2ccccc2c1)NCC1CCCO1` (centres unmarked) was run?
Its value is -26.1%.

Which “hERG current change (%, negative = inhibition) at 10uM” value does the source give for `O=C(O)c1ccccc1C(=O)NCc1ccccc1` here?
The value was -3.04%.

Which “hERG current change (%, negative = inhibition) at 10uM” value does the source give for `OC(C#Cc1ccccn1)c1cccs1` (centres unmarked) here?
The value was 3.9%.

`COc1ccc(C2C(C#N)=C(N)Oc3n[nH]c(-c4ccccn4)c32)c(OC)c1OC` (centres unmarked) was tested. Which “hERG current change (%, negative = inhibition) at 10uM” value did it give?
The value was 11%.

For `CCN1CCN(C(=O)c2cccc(OC3CCN(S(=O)(=O)N(C)C)CC3)c2)CC1`, which “hERG current change (%, negative = inhibition) at 10uM” value is on record?
Its value is 24.3%.

Which “hERG current change (%, negative = inhibition) at 10uM” value does the source give for `Fc1ccccc1COc1ccc(/C=N/n2cnnc2)cc1` here?
The value was -12.2%.

With `CCCC1C(C#N)=C(N)Oc2n[nH]c(C(C)(C)C)c21` (centres unmarked) as the compound, how does the “hERG current change (%, negative = inhibition) at 10uM” value read?
Its value is -3.31%.

`CC(=O)N/C(=C\c1ccccc1)C(=O)OCC(=O)NC(C)C12CC3CC(CC(C3)C1)C2` (centres unmarked) was tested. Which “hERG current change (%, negative = inhibition) at 10uM” value did it give?
The value was -1.62%.

How did the “hERG current change (%, negative = inhibition) at 10uM” value turn out when `COc1ccc(OC)c(NC(=O)Nc2ccccc2C)c1` was run?
Its value is 8.74%.
